52 compounds from paper PMC13083723 (Patterns, 2026) can be followed below.

Hit rate of the full screen: of about 5,400 compounds, about 190 (3.5%) showed an effect of 50% or more. This is one part of the list.

This assay has as its system Vero-E6. Kind of assay: primary screen, phospholipidosis by LipidTOX staining; higher = more effect of the substance. The conditions noted are these: 10 µM. The essentials: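 Drug-induced phospholipidosis detected with HCS LipidTOX Red reagent in Vero-E6 cells. Compounds tested at 10 μM, with amiodarone (10 μM) as positive control and DMSO (0.1 v/v %) as vehicle.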
On to `O=C1C2CC=CCC2C(=O)N1SC(Cl)(Cl)Cl` (stereo not shown), for which the result_ITMP amounted to 1.48%.

As to `CO[C@@H](C)Cn1c(=O)n(C)c2cnc3ccc(-c4cncc(C(C)(C)O)c4)cc3c21`, the result_ITMP is -0.17%.

As for `CC(C)OC(=O)[C@H](C)N[P@](=O)(CO[C@H](C)Cn1cnc2c(N)ncnc21)Oc1ccccc1`, the result_ITMP was 6.26%.

With `c1ccc(-c2cnn3cc(-c4ccc(OCCN5CCOCC5)cc4)cnc23)cc1`, the result_ITMP was -1.94%.

As to `C=CCN1CCCC1CNC(=O)c1cc2nn[nH]c2cc1OC` (stereo not shown), the result_ITMP is listed as 1.44%.

For `CC(=O)O[C@@]12CO[C@@H]1C[C@H](O)[C@@]1(C)C(=O)[C@H](O)C3=C(C)[C@@H](O)C[C@@](O)([C@@H](OC(=O)c4ccccc4)[C@H]21)C3(C)C`, the result_ITMP is -5.35%.

Turning to `O=C(NCNC(=O)NC1C(=O)NC(=O)N1CO)NC1C(=O)NC(=O)N1CO` (stereo not shown), the result_ITMP is on record as -4.37%.

`CCCCCCOc1nsnc1C1=CCCN(C)C1`: the result_ITMP turned out to be 17.9%.

For `O=[N+]([O-])c1ncc[nH]1`, the result_ITMP is -0.75%.

Regarding `Cc1csc(NC(=O)CSc2ccc(-c3ccccc3)nn2)n1`, the result_ITMP is -2.29%.

For `COc1ccc(S(=O)(=O)Nc2cc(Cl)cc(Cl)c2OC)cc1N1CCNCC1`, the result_ITMP turned out to be 14.4%.

In the case of `c1ccc2c(-c3cnn4cc(-c5ccc(N6CCNCC6)cc5)cnc34)ccnc2c1`, the result_ITMP is recorded as -16.6%.

As to `CC(C)(Oc1ccc(C2CC2(Cl)Cl)cc1)C(=O)O` (stereo not shown), the result_ITMP is given as -0.88%.

Turning to `CN(CCOc1ccc(-c2ccc3c(c2)OCO3)cc1C(C)(C)C)CC(=O)O`, the result_ITMP is given as 3.89%.

As for `O=C(O)CCc1nc2ccccc2[nH]1`, the result_ITMP is listed as -0.69%.

For `C[C@@H]1CC2C3C[C@H](F)C4=CC(=O)C=C[C@]4(C)[C@@]3(F)[C@@H](O)C[C@]2(C)[C@@]1(O)C(=O)COC(=O)C(C)(C)C` (stereo partly shown), the result_ITMP was -3.06%.

For the compound `CCC(C)(CN(C)C)OC(=O)c1ccccc1` (stereo not shown), the result_ITMP is -1.47%.

As to `NCc1c[nH]c(=S)n1[C@H]1CCc2c(F)cc(F)cc2C1`, the result_ITMP is given as 4.75%.

Turning to `CCCc1nc(C)c2c(=O)[nH]c(-c3cc(S(=O)(=O)N4CCN(CC)CC4)ccc3OCC)nn12`, the result_ITMP is 10.7%.

On to `C=C(NC(=O)C(=C)NC(=O)c1csc(C2=N[C@@H]3c4csc(n4)[C@H]4NC(=O)c5csc(n5)[C@H]([C@](C)(O)[C@@H](C)O)NC(=O)[C@H]5CSC(=N5)/C(=C/C)NC(=O)[C@H]([C@@H](C)O)NC(=O)c5csc(n5)[C@]3(CC2)NC(=O)[C@H](C)NC(=O)C(=C)NC(=O)[C@H](C)NC(=O)[C@H]([C@@H](C)CC)N[C@@H]2C=Cc3c([C@H](C)O)cc(nc3[C@H]2O)C(=O)O[C@@H]4C)n1)C(N)=O`, for which the result_ITMP is reported as -1.79%.

As for `O=C(/C=C/c1ccccc1)NC(NC(=S)Nc1ccc(Cl)cc1)C(Cl)(Cl)Cl` (stereo not shown), the result_ITMP was -0.56%.

`Cn1c(=O)c2c(ncn2CC(O)CO)n(C)c1=O` (stereo not shown): the result_ITMP was -0.79%.

Turning to `NC[C@H]1O[C@H](O[C@H]2[C@H](O[C@@H]3O[C@H](CO)[C@@H](O)[C@H]3O)[C@@H](O)[C@H](N)C[C@@H]2N)[C@H](N)[C@@H](O)[C@@H]1O`, the result_ITMP is reported as -1.8%.

In the case of `OCc1ccc(-c2nn(Cc3ccccc3)c3ccccc23)o1`, the result_ITMP is -1.24%.

Regarding `NCCC(=O)N[C@@H](Cc1cnc[nH]1)C(=O)O`, the result_ITMP is given as -4.18%.

As for `NC(=O)c1cccnc1`, the result_ITMP was -7.2%.

Consider `O=S(=O)(NC1CCNCC1)c1cc(S(=O)(=O)c2ccccc2)ccc1C(F)(F)F`, for which the result_ITMP worked out at 1.7%.

On to `CC(C)C[C@H](N)C(=O)O`, for which the result_ITMP worked out at 7.87%.

Take `Nc1nccs1`: the result_ITMP is listed as -6.21%.

Turning to `O=C1[C@@H]2[C@H]3CC[C@H](C3)[C@@H]2C(=O)N1CCCCN1CCN(c2ncccn2)CC1`, the result_ITMP is on record as -0.39%.

Turning to `C[C@H](CCC(=O)NCCS(=O)(=O)O)[C@H]1CC[C@H]2[C@@H]3[C@@H](O)C[C@@H]4C[C@H](O)CC[C@]4(C)[C@H]3CC[C@]12C`, the result_ITMP turned out to be 3.34%.

`O=C(NCc1ccc(Oc2ccccc2)cc1)c1nc(-c2cc(Br)c(O)c(Br)c2)no1`: the result_ITMP is reported as -11%.

Consider `CCCCCCCCCCCCCCCC[N+](C)(C)C`, for which the result_ITMP was determined as 3.37%.

Take `CS(=O)c1ccc(-c2nc(-c3ccc(F)cc3)c(-c3ccncc3)[nH]2)cc1` (stereo not shown): the result_ITMP is reported as -1.65%.

With `Cc1c(Cn2c(C)nc3c(C(=O)O)cc(N4CCOCC4)cc32)cccc1C(F)(F)F`, the result_ITMP is recorded as 4.29%.

Regarding `Cc1ncc(-c2csc(NC(=N)N)n2)[nH]1`, the result_ITMP was -2.01%.

On to `CC(=O)N(O)C/C=C/c1cccc(Oc2ccccc2)c1`, for which the result_ITMP is -9.75%.

`CCOc1ccccc1O[C@@H](c1ccccc1)[C@@H]1CNCCO1.CCOc1ccccc1O[C@H](c1ccccc1)[C@H]1CNCCO1`: the result_ITMP amounted to 11%.

Take `COc1cnc(-n2cnc(C)n2)c2[nH]cc(C(=O)C(=O)N3CCN(C(=O)c4ccccc4)CC3)c12`: the result_ITMP was -1%.

For the compound `CC(C)N(CCC(=O)c1ccc2ccccc2c1)Cc1ccccc1`, the result_ITMP was found to be 0.88%.

Take `CN1C2CCC1CC(OC(c1ccc(F)cc1)c1ccc(F)cc1)C2` (stereo not shown): the result_ITMP stood at 61.5%.

In the case of `CCOC(=O)c1ccc(C#Cc2ccc3c(c2)C(C)(C)CCS3)nc1`, the result_ITMP was -1.97%.

On to `C[C@@H]1CN(c2c(F)c(F)c3c(=O)c(C(=O)O)cn(C4CC4)c3c2F)C[C@H](C)N1`, for which the result_ITMP is reported as -7.82%.

As to `C=C1CC[C@H](O)C/C1=C/C=C1\CCC[C@]2(C)[C@@H]([C@H](C)CCCC(C)(C)O)CC[C@@H]12`, the result_ITMP is -0.38%.

For the compound `CC(C)Cc1ccc(C(C)C(=O)O)cc1` (stereo not shown) [R4A_0001344_001 / SPE_K14965640], the result_ITMP is given as 1.58%.

As for `O=C1CN=C(c2cccc(Br)c2)c2oc3ccccc3c2N1`, the result_ITMP stood at 0.69%.

In the case of `CC[C@]12CCCN3CCc4c(n(c5ccccc45)[C@@](O)(C(=O)OC)C1)[C@@H]32`, the result_ITMP is reported as 0.7%.

`O=C(N[C@H]1CN2CCC1CC2)c1ccc2c(c1)OCCO2`: the result_ITMP turned out to be 4.79%.

`Cn1c(=O)c(F)c(Nc2ccc(I)cc2F)c2c(=O)n(C[C@@H](O)CO)cnc21`: the result_ITMP came to 3.44%.

Take `CCC[C@@H](NC(=O)N1C(=O)C(CC)(CC)[C@@H]1Oc1ccc(C(=O)N2CCN(C)CC2)cc1)c1ccc2c(c1)OCO2`: the result_ITMP is 29.8%.

Regarding `NCCNc1ccc(NCCN)c2c1C(=O)c1ccncc1C2=O`, the result_ITMP was -1.58%.

As for `CNC[C@@H]1CC[C@@H](N)[C@@H](O[C@H]2[C@H](O)[C@@H](O[C@H]3OC[C@](C)(O)[C@H](NC)[C@H]3O)[C@H](N)C[C@@H]2N)O1`, the result_ITMP is on record as 2.29%.
